This is one part of the list. The list includes weakly bound sequences.

The experiment has as its target T1, MBP-FoxP3dN (UniProt Q99JB6).
T1 sequence: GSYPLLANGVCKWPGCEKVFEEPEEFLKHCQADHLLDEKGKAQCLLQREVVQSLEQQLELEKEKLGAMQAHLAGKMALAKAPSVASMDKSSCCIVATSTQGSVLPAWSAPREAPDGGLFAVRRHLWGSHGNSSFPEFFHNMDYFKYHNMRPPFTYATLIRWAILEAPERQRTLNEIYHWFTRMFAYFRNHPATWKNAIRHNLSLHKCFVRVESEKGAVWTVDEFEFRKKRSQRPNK
The experiment can be described thus: PD-seq (MBP pull-down with sequencing). As to conditions: 20 mM Tris-HCl pH 7.5, 100 mM NaCl, 1.5 mM MgCl2, 0.4 uM protein, 0.1 uM dsDNA library, 30 min, room temperature, amylose pull-down; high values mean tight binding; double strand, one strand shown.
On to “GATGATTGTTCTCCCAGCTGATGAATTACACCAGTCGAGTAAACAAATTTTCCTAATCTTTCTGTTCAAGCGCCATCTAC”, for which the binding signal (RPM ratio (pull-down/input)) is 0.338.
Regarding “GATGATTGTTCTCCCAGCTGATGAATTCCGTTACTCGAGTAAACAAATTTTCCTAATCTTTCTGTTCAAGCGCCATCTAC”, the binding signal (RPM ratio (pull-down/input)) was 1.19.
Regarding “GATGATTGTTCTCCCAGCTGATGAATTTTATCGGTCGAGTAAACAAATTTTCCTAATCTTTCTGTTCAAGCGCCATCTAC”, the binding signal (RPM ratio (pull-down/input)) stood at 0.351.
Turning to “GATGATTGTTCTCCCAGCTGATGAATTACATGAATCGAGTAAACAAATTTTCCTAATCTTTCTGTTCAAGCGCCATCTAC”, the binding signal (RPM ratio (pull-down/input)) is 0.385.
The figure for “GATGATTGTTCTCCCAGCTGATGAATTAATACGATCGAGTAAACAAATTTTCCTAATCTTTCTGTTCAAGCGCCATCTAC” is 0.484; for “GATGATTGTTCTCCCAGCTGATGAATTCCCCAATTCGAGTAAACAAATTTTCCTAATCTTTCTGTTCAAGCGCCATCTAC” it is 0.199.
As for “GATGATTGTTCTCCCAGCTGATGAATTTCGTATGTCGAGTAAACAAATTTTCCTAATCTTTCTGTTCAAGCGCCATCTAC”, the binding signal (RPM ratio (pull-down/input)) came to 2.73.
In the case of “GATGATTGTTCTCCCAGCTGATGAATTGAGACCGTCGAGTAAACAAATTTTCCTAATCTTTCTGTTCAAGCGCCATCTAC”, the binding signal (RPM ratio (pull-down/input)) turned out to be 0.383.
For “GATGATTGTTCTCCCAGCTGATGAATTACCGAATTCGAGTAAACAAATTTTCCTAATCTTTCTGTTCAAGCGCCATCTAC”, the binding signal (RPM ratio (pull-down/input)) was 0.754.
In the case of “GATGATTGTTCTCCCAGCTGATGAATTCTAAGCCTCGAGTAAACAAATTTTCCTAATCTTTCTGTTCAAGCGCCATCTAC”, the binding signal (RPM ratio (pull-down/input)) was 0.322.
For “GATGATTGTTCTCCCAGCTGATGAATTGGCGATATCGAGTAAACAAATTTTCCTAATCTTTCTGTTCAAGCGCCATCTAC”, the binding signal (RPM ratio (pull-down/input)) was found to be 0.594.
“GATGATTGTTCTCCCAGCTGATGAATTTTGAGCGTCGAGTAAACAAATTTTCCTAATCTTTCTGTTCAAGCGCCATCTAC”: the binding signal (RPM ratio (pull-down/input)) came to 0.583.
Take “GATGATTGTTCTCCCAGCTGATGAATTTTTTGTGTCGAGTAAACAAATTTTCCTAATCTTTCTGTTCAAGCGCCATCTAC”: the binding signal (RPM ratio (pull-down/input)) was determined as 0.531.
The figure for “GATGATTGTTCTCCCAGCTGATGAATTAGGCACGTCGAGTAAACAAATTTTCCTAATCTTTCTGTTCAAGCGCCATCTAC” is 1.03; for “GATGATTGTTCTCCCAGCTGATGAATTTTTAGGATCGAGTAAACAAATTTTCCTAATCTTTCTGTTCAAGCGCCATCTAC” it is 0.222.
For the sequence “GATGATTGTTCTCCCAGCTGATGAATTCCGCTCGTCGAGTAAACAAATTTTCCTAATCTTTCTGTTCAAGCGCCATCTAC”, the binding signal (RPM ratio (pull-down/input)) amounted to 0.774.
The figure for “GATGATTGTTCTCCCAGCTGATGAATTTCCCACGTCGAGTAAACAAATTTTCCTAATCTTTCTGTTCAAGCGCCATCTAC” is 0.273; for “GATGATTGTTCTCCCAGCTGATGAATTGATCAAGTCGAGTAAACAAATTTTCCTAATCTTTCTGTTCAAGCGCCATCTAC” it is 0.245; for “GATGATTGTTCTCCCAGCTGATGAATTATGTGGCTCGAGTAAACAAATTTTCCTAATCTTTCTGTTCAAGCGCCATCTAC” it is 1.57.
On to “GATGATTGTTCTCCCAGCTGATGAATTAATGCGTTCGAGTAAACAAATTTTCCTAATCTTTCTGTTCAAGCGCCATCTAC”, for which the binding signal (RPM ratio (pull-down/input)) amounted to 2.76.
As for “GATGATTGTTCTCCCAGCTGATGAATTGCAAACATCGAGTAAACAAATTTTCCTAATCTTTCTGTTCAAGCGCCATCTAC”, the binding signal (RPM ratio (pull-down/input)) is 2.67.
For the sequence “GATGATTGTTCTCCCAGCTGATGAATTCGAGCGGTCGAGTAAACAAATTTTCCTAATCTTTCTGTTCAAGCGCCATCTAC”, the binding signal (RPM ratio (pull-down/input)) was 0.282.
Consider “GATGATTGTTCTCCCAGCTGATGAATTCTCGCTCTCGAGTAAACAAATTTTCCTAATCTTTCTGTTCAAGCGCCATCTAC”, for which the binding signal (RPM ratio (pull-down/input)) worked out at 0.367.
The value for “GATGATTGTTCTCCCAGCTGATGAATTCGAATCATCGAGTAAACAAATTTTCCTAATCTTTCTGTTCAAGCGCCATCTAC” was 0.582.
“GATGATTGTTCTCCCAGCTGATGAATTGACCGTCTCGAGTAAACAAATTTTCCTAATCTTTCTGTTCAAGCGCCATCTAC”: the binding signal (RPM ratio (pull-down/input)) is 0.364.
The value for “GATGATTGTTCTCCCAGCTGATGAATTGGCTCGATCGAGTAAACAAATTTTCCTAATCTTTCTGTTCAAGCGCCATCTAC” was 0.261; that for “GATGATTGTTCTCCCAGCTGATGAATTGGCATTGTCGAGTAAACAAATTTTCCTAATCTTTCTGTTCAAGCGCCATCTAC” was 2.47; that for “GATGATTGTTCTCCCAGCTGATGAATTGAACAGATCGAGTAAACAAATTTTCCTAATCTTTCTGTTCAAGCGCCATCTAC” was 0.174.
As for “GATGATTGTTCTCCCAGCTGATGAATTATATTGCTCGAGTAAACAAATTTTCCTAATCTTTCTGTTCAAGCGCCATCTAC”, the binding signal (RPM ratio (pull-down/input)) is 1.53.
For the sequence “GATGATTGTTCTCCCAGCTGATGAATTTTGTTTCTCGAGTAAACAAATTTTCCTAATCTTTCTGTTCAAGCGCCATCTAC”, the binding signal (RPM ratio (pull-down/input)) was determined as 5.54.
Turning to “GATGATTGTTCTCCCAGCTGATGAATTCCTGCCTTCGAGTAAACAAATTTTCCTAATCTTTCTGTTCAAGCGCCATCTAC”, the binding signal (RPM ratio (pull-down/input)) was 1.75.

For the origin of these results see article PMC12820563.
